We go through 86 molecules from PMC4336329 (PLoS ONE, 2015).

About 2,200 (0.71%) of roughly 310,000 compounds showed an effect of 50% or more. The effect is printed as a negative number. The list shows a part of the results.

For this experiment, the target named is human ether-à-go-go-related gene (hERG) potassium channel (human, UniProt Q12809). Nature of the experiment: primary screen, population patch clamp on CHO cells stably expressing hERG.
human ether-à-go-go-related gene (hERG) potassium channel, sequence (Q12809 whole entry, looked up): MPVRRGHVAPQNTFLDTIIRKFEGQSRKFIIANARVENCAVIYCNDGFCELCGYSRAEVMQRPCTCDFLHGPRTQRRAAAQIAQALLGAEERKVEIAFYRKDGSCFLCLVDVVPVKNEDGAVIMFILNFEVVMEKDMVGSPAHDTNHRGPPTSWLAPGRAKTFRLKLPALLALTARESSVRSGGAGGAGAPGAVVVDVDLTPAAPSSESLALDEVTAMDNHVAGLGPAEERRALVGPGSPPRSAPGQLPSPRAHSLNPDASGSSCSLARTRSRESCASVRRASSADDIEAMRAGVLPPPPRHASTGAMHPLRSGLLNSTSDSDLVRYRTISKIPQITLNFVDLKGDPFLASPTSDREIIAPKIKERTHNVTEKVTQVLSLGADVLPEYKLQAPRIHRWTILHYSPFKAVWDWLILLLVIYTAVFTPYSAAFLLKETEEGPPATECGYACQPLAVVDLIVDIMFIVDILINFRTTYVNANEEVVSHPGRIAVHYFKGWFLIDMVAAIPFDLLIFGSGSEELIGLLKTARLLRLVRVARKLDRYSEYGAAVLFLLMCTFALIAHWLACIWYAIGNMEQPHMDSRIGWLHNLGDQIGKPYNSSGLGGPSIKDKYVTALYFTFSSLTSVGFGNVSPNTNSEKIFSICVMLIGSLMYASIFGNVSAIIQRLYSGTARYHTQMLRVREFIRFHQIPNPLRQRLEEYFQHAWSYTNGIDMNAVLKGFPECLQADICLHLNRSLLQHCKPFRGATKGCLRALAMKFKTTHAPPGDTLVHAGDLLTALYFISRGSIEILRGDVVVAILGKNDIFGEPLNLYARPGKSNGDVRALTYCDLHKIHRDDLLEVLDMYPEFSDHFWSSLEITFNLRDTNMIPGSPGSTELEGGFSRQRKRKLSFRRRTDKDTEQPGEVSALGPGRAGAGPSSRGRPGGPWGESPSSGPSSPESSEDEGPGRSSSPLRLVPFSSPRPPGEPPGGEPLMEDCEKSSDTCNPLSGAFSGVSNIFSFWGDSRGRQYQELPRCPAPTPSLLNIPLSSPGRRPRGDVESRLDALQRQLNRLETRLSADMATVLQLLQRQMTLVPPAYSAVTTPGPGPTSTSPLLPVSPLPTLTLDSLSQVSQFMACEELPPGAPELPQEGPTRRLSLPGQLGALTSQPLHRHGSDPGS
Take `O=C(c1cc2nc(-c3ccccc3)cc(-c3ccccc3)n2n1)N1CCN(C(=O)c2ccco2)CC1`: the “hERG current change (%, negative = inhibition) at 1uM” value is on record as -13.6%.

`COc1ccc(SCc2noc(C(=O)NCC3CCCO3)c2C(=O)O)cc1` (centres unmarked): the “hERG current change (%, negative = inhibition) at 1uM” value is given as 10.4%. The value for `CCOC(=O)c1c(C)[nH]c(C)c1C(=O)COC(=O)c1nc2nccc(C)n2n1` was 11.4%; that for `Cc1ccc(NC2CC(=O)N(c3ccc(N4CCCCC4)cc3)C2=O)cc1` (centres unmarked) was 15.1%. For `O=C(CCCN1C(=O)/C(=C/c2ccccc2)SC1=S)N1CCOCC1`, the “hERG current change (%, negative = inhibition) at 1uM” value amounted to 6.3%. The value for `COc1ccc(-c2ccnc3nc(N4CCN(c5ccccc5)CC4)nn23)cc1` was 14.9%; that for `CCC(=O)Nc1cccc2cccnc12` was 7.92%; that for `Cc1cc(C(=O)OCC(=O)N2CC(C)CC(C)C2)c(C)o1` (centres unmarked) was 7.25%. Regarding `CCN1CCCCC(=N/O)/C(=N/O)CCCC1`, the “hERG current change (%, negative = inhibition) at 1uM” value is reported as 6.6%. The figure for `O=C(O)CCCCCNC(=O)CCn1cnc2ccccc2c1=O` is 8.25%; for `Cc1n[nH]c(=O)nc1N1CCN(c2ccccc2)CC1` it is 10.7%; for `O=C(CNC(=O)C(c1ccccc1)c1ccccc1)N/N=C\c1ccc(C(=O)O)cc1` it is 13.2%. The figure for `O=C(CSc1nc2nn(-c3ccccc3)c(=O)c-2c2n1CCCCC2)NCCCc1ccccc1` is -8.94%; for `CCn1cc(C(=O)N2CCN(C3CCCCC3)CC2)c2cc(OC)c(OC)cc2c1=O` it is -2.15%; for `O=C(NNC(=O)c1ccc(=O)[nH]c1)c1ccc(NS(=O)(=O)c2cccs2)cc1` it is 3.74%. As for `O=c1[nH]c2ccccc2nc1Cc1ccc([N+](=O)[O-])cc1`, the “hERG current change (%, negative = inhibition) at 1uM” value was 5.25%.

In the case of `O=C(CNC(=O)c1ccccc1F)OCCOc1cccc(Cl)c1`, the “hERG current change (%, negative = inhibition) at 1uM” value is 10%.

Take `COCCN(C)Cc1cn(-c2ccc(F)cc2F)nc1-c1ccccc1C`: the “hERG current change (%, negative = inhibition) at 1uM” value is given as 6.39%. The figure for `COc1ccc(CCNC(=O)CSC2=Nc3ccccc3C3=NC(C(C)C)C(=O)N23)cc1OC` (centres unmarked) is 14.9%; for `Cc1nc(Cl)c(C(=O)NC(C)(C)C)c(C)c1Cl` it is 7.59%; for `CCc1ccc(NC(=O)C(C)OC(=O)C2CCC(=O)N2)cc1` (centres unmarked) it is 17.9%. The figure for `COc1ccc(-c2ccnc(-c3ccncc3)n2)cc1` is 9.75%; for `CC(C)OCC(O)CN1CC2C[C@@H](C1)Cn1c2cccc1=O` (some centres unmarked) it is 11.6%; for `CC(=O)n1cc([C@@H]2C=C(C(=O)NCc3ccccc3)O[C@H](OCc3ccc(CO)cc3)C2)c2ccccc21` it is -7.87%. For the molecule `O=C(c1ccc(Cl)cc1)c1ccccc1C(=O)N1CCOCC1`, the “hERG current change (%, negative = inhibition) at 1uM” value is listed as 7.71%.

As to `CCOc1cc(NC(=S)NCCCN2CCOCC2)c(OCC)cc1NC(=O)c1ccco1`, the “hERG current change (%, negative = inhibition) at 1uM” value was -1.86%. The value for `COc1ccc(OC)c(NC(=O)COc2coc(CN3CCc4ccccc43)cc2=O)c1` was 4.25%. The value for `COC(=O)CN1C(=O)Nc2ccc(Br)cc2C1c1ccccc1Cl` (centres unmarked) was -8.8%; that for `COc1ccc(C2(C)NC(=O)N(CC(=O)c3cc(C)n(C4CC4)c3C)C2=O)cc1` (centres unmarked) was -4.87%. The figure for `Cc1nccn1CC1CCc2c(c3ccccc3n2C)C1=O.Cl` (centres unmarked) is -5.8%; for `CC(C)CNS(=O)(=O)c1ccc(CCC(=O)NCCc2ccccc2)cc1` it is 5.19%. As to `COc1ccc(S(=O)(=O)N2CCCCCC2)cc1C(=O)N(C)Cc1ccc(C)cc1`, the “hERG current change (%, negative = inhibition) at 1uM” value is on record as 8.15%. As for `COCCNC(=O)C(c1ccc(Cl)cc1)N(CCOC)C(=O)CCC(=O)Nc1nccs1` (centres unmarked), the “hERG current change (%, negative = inhibition) at 1uM” value is reported as -5.87%.

Turning to `CC(Cc1cccs1)NC(=S)Nc1ccc(F)cc1` (centres unmarked), the “hERG current change (%, negative = inhibition) at 1uM” value worked out at 1.32%.

Take `COC(=O)c1ccccc1NC(=O)COc1ccc(S(=O)(=O)N2CCCC2)cc1C`: the “hERG current change (%, negative = inhibition) at 1uM” value turned out to be 12.3%. The figure for `CCn1c(CSCc2ccc(C)cc2)nnc1SCC(=O)N1CCN(c2ccccc2)CC1` is -11%; for `CCOc1ccc(NC(=O)CC(C)S(=O)(=O)c2ccc3c(c2)NC(=O)CO3)cc1` (centres unmarked) it is 14.8%. The value for `COC(=O)CNC(=O)CSc1nc2c(sc(=S)n2-c2ccccc2)c(=O)[nH]1` was 9.86%; that for `CN(C)S(=O)(=O)c1cccc(NC(=O)c2ccc(-n3cncn3)c([N+](=O)[O-])c2)c1` was 1.46%. The value for `Cc1c(C(=O)OCC(=O)N2CC(C)OC(C)C2)oc2ccc(Br)cc12` (centres unmarked) was 0.218%; that for `CCOC(=O)CSc1nc2ccccc2c(=O)n1CCN1CCOCC1` was -36.8%; that for `CN1C2CCC1CC(NC(=O)c1cc(Cl)cc3[nH]cnc13)C2` (centres unmarked) was 6.29%. Take `O=C(NC1CCCC1)c1cc(-c2ccccc2Cl)on1`: the “hERG current change (%, negative = inhibition) at 1uM” value is on record as 12.5%. The figure for `O=C1c2ccccc2C(=O)C12OC(c1ccccc1)C1(C(=O)c3ccccc3C1=O)C2c1ccc([N+](=O)[O-])cc1` (centres unmarked) is 12.7%. The value for `CCOc1ccccc1C(=O)Nc1ccc(S(=O)(=O)Nc2cc(OC)nc(OC)n2)cc1` was 2.83%; that for `CCCCN(CC)CCNC(=O)c1cc2c(=O)n(CC)c3ccccc3c2s1` was 1.04%. The value for `Cc1nc(Cl)sc1C(=O)Nc1cccc2ccccc12` was -0.114%. Regarding `O=C(Cc1ccccc1C(=O)O)Nc1cccc2ccccc12`, the “hERG current change (%, negative = inhibition) at 1uM” value came to 14.9%.

Take `Cc1cc(Cl)c(S(=O)(=O)Nc2ccon2)cc1OCC(=O)NC1CCCCC1`: the “hERG current change (%, negative = inhibition) at 1uM” value amounted to 8.51%. The figure for `O=C(Cc1ccccc1)N1CCC(C(=O)N2CCN(c3ccc(F)cc3)CC2)CC1` is -26.5%; for `Cc1ccc(OCc2nnc(SCC(=O)Nc3ccc4c(c3)OCO4)n2C)cc1` it is -15%; for `O=C(NCc1c(O)ccc2ccccc12)c1ccccc1` it is 12.8%. The figure for `NC(N)=NS(=O)(=O)c1ccc(NC(=S)Nc2ccc(F)cc2)cc1` is 9.05%. The figure for `CC(=O)Nc1ccc(Cc2nc3c([nH]2)c(=O)n(C)c(=O)n3C)cc1` is 16.6%. On to `Nc1nc(-c2ccc(Cl)cc2)nn1C(=O)c1cccs1`, for which the “hERG current change (%, negative = inhibition) at 1uM” value came to 8.57%. The value for `COc1ccccc1C(=O)N/C(=C\c1cn(C)c2ccccc12)C(=O)NCCCN1CCOCC1` was 20.8%; that for `CCOC(=O)c1[nH]c2ccc(OCC)cc2c1NC(=O)CN1CCC2(CC1)OCCO2` was -13.3%. The value for `O=C(O)CNS(=O)(=O)Cc1ccccc1` was 17.3%. The value for `O=C(Cc1ccccc1)N1CCN(Cc2ccc(F)cc2)CC1.O=C(O)C(=O)O` was 10.7%. As to `Cn1c(=O)c2[nH]c(CN(Cc3ccccc3)Cc3ccccc3)nc2n(C)c1=O`, the “hERG current change (%, negative = inhibition) at 1uM” value is recorded as 0.329%.

With `CCOc1ccc(NC2=CC(=O)CC(c3ccco3)C2)cc1` (centres unmarked), the “hERG current change (%, negative = inhibition) at 1uM” value is reported as 4.97%. The value for `COC(=O)[C@H]1C[C@H]1[C@@H](NC(=O)c1ccc[nH]1)c1ccccc1` was 2.75%. For the molecule `CCOC(=O)Nc1ccc2c(c1)N(C(=O)CN1CCN(C)CC1)c1ccccc1CC2.Cl`, the “hERG current change (%, negative = inhibition) at 1uM” value was determined as 10.3%. The value for `Cc1ccc(S(=O)(=O)NNC(=O)c2ccccc2O)cc1` was 9.41%. The figure for `O=C(COCc1ccccc1)N[C@@H](Cc1ccc(O)cc1)C(=O)O` is 6.13%. The figure for `CCN1CCN(c2nc3c(c(=O)n(C)c(=O)n3C)n2Cc2cccc3ccccc23)CC1` is -3.45%; for `CCC(C)NS(=O)(=O)c1ccc(NC(=O)C(Sc2ccccc2)c2ccccc2)cc1` (centres unmarked) it is 1.63%. In the case of `CCOC(=O)c1cc2c(=O)n3cccc(C)c3nc2n(CCCOC)c1=NC(=O)c1cccnc1`, the “hERG current change (%, negative = inhibition) at 1uM” value is on record as -65.4%. The figure for `Cc1cc(=O)n2c3ccccc3n(C)c2n1` is 12.3%; for `CCOC(=O)c1ccccc1NC(=O)COC(=O)CN1C(=O)C2CC=CCC2C1=O` (centres unmarked) it is 4.2%; for `O=C(CCC(=O)Nc1ccc(F)cc1)N/N=C/c1cccnc1` it is 14%. The value for `COc1ccc(CNC(=O)c2cc(C3CC3)on2)cc1` was 15.1%; that for `O=C(NC1CCCc2c1cnn2-c1ccccc1F)c1ccccc1N1CCOCC1` (centres unmarked) was -11.9%; that for `CCC(c1ccc(O)cc1)C(CC)c1ccc(O)cc1` (centres unmarked) was 7.79%. The figure for `O=C(c1ccc(COc2ccc(F)cc2)o1)n1cccn1` is 10.7%; for `CCOC(=O)Cc1csc(NC(=O)CSc2nnc(C3CC3)n2C)n1` it is 5.97%. Consider `COc1cccc(C=O)c1OCCN1C(=O)c2ccccc2C1=O`, for which the “hERG current change (%, negative = inhibition) at 1uM” value stood at 11.9%.

As to `O=C(NCc1cccnc1)c1cccc(NC(=O)c2ccco2)c1`, the “hERG current change (%, negative = inhibition) at 1uM” value was -1.61%. `COc1ccc(C(=O)OCC(=O)NC(=O)NC(C)C)cc1OC`: the “hERG current change (%, negative = inhibition) at 1uM” value is reported as 15.5%.

For the molecule `O=C(CSc1nnc(COc2cccc3cccnc23)o1)N1CCc2ccccc21`, the “hERG current change (%, negative = inhibition) at 1uM” value was 14.3%. The value for `CN(CC(=O)Nc1ccccc1Cl)CC(=O)Nc1c(F)cccc1F` was 16.7%; that for `O=C(CCn1c(=O)oc2ccccc21)NCCCN1CCN(c2ccc(F)cc2)CC1` was -23.7%; that for `O=C(CSc1nc(-c2ccccc2)c(-c2ccccc2)[nH]1)N1CCN(S(=O)(=O)c2ccccc2)CC1` was 8.86%. The figure for `COc1cc(C(=O)NCCC(=O)N2CCN(C)CC2)cc(OC)c1OC` is 9.38%; for `CCOC(=O)Cn1c(CN2CCOCC2)nc2c1c(=O)n(C)c(=O)n2C` it is 2.78%.

For the molecule `O=C(CCNS(=O)(=O)/C=C/c1ccccc1)NCCc1c[nH]c2ccccc12`, the “hERG current change (%, negative = inhibition) at 1uM” value amounted to 10.6%.
